Assay results published in PubChem BioAssay AID1240 (Sanford-Burnham Center for Chemical Genomics, 2008).
In all, about 50,000 compounds went through this assay and about 800 (1.6%) showed an effect of 50% or more. The list shows a part of the results.

The compounds below were run against Bcl-2-like protein 10 (Homo sapiens) (UniProt Q9HD36) (assay: Phenotype converters, Bcl-B/TR3 peptide binding displacement, primary biochemical FP (AID 1240;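 further: 0% = Bcl-B with tracer peptide and DMSO and 100% = tracer peptide lacking Bcl-B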)). Settings: GST-Bcl-B / FITC-TR3 peptide fluorescence polarization; stronger effect = higher value; compound at 3.75 mg/L.
Sequence of UniProt Q9HD36 (Q9HD36 whole entry, looked up): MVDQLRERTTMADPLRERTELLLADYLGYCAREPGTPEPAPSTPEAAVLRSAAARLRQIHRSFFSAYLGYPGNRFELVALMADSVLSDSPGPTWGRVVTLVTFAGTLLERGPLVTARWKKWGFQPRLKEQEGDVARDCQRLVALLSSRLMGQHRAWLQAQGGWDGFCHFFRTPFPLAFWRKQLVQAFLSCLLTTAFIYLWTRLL

SMILES | displacement [%]
COc1cccc(C(=O)OC2CC(C)N(C)CC2C)c1 (stereo not drawn) | -12.2
CC(C)CC(Nc1c(C(=O)Nc2ccc(Cl)cc2)cc([N+](=O)[O-])cc1[N+](=O)[O-])C(=O)O (stereo not drawn) | 21.4
Cn1c(SCC(=O)N/N=C/c2cccc(OCc3ccccc3)c2)nc2ccccc21 | -2.4
COc1cccc(/C=C2\N=C(c3ccccc3OC)OC2=O)c1 | -6
COc1ccc(C(=O)/C=C/c2ccccc2F)cc1OC | 5.2
COCC(=O)Nc1ccc(F)cc1F | -5.1
CCCc1noc(-c2ccc(-c3ccc(CC)cc3)cc2)n1 | -8.7
Cc1oc2ccc(OCc3ccc(Cl)cc3)cc2c1C(=O)O | 6.3
CCc1nnc(NC(=O)/C=C/c2ccc3c(c2)OCO3)s1 | 29.4
O=[N+]([O-])c1ccc(-c2nnc(-c3ccccc3I)o2)cc1 | 3.7
Cc1ccc(OCC(=O)NNC(=O)c2cccc(O)c2)c(C)c1 | -2.4
CN1CCN(C(=O)c2ccc([N+](=O)[O-])cc2Cl)CC1 | -9.7
O=C(NCC1CCNCC1)C(=O)NC1CCCCC1 | -8.1
CCc1ccc(-c2[nH]c(=S)[nH]c(=O)c2C#N)cc1 | -7.3
CCOC(=O)c1sc(Nc2ccc(Br)cc2)nc1-c1ccccc1 | 4.3
C=CCNC(=O)CN(c1cccc(C(F)(F)F)c1)S(C)(=O)=O | 3.1
CCOc1ccc(NS(=O)(=O)Cc2ccccc2)cc1 | 5.4
Cc1c(C(=O)Nc2ccc3oc(-c4ccc(Cl)cc4Cl)nc3c2)cccc1[N+](=O)[O-] | -5.8
COc1cccc(C2NC(=O)NC(C)=C2C(=O)Nc2ccccc2OC)c1 (stereo not drawn) | -15.5
Cc1ccc(N(CC(=O)NCCCC(C)(C)C2OCCO2)S(=O)(=O)c2ccc(F)cc2)cc1 | 3.9
COc1ccc(S(=O)(=O)N2CCN(Cc3cc(OC)c(OC)cc3OC)CC2)cc1 | -4.4
COc1ccc(-n2nc3ccc(NC(=O)Cc4ccccc4)cc3n2)cc1 | 5.1
COC(OC)C12c3ccccc3C(c3ccccc31)C1C(=O)N(Cc3cccnc3)C(=O)C12 (stereo not drawn) | -5.7

SMILES | displacement [%]
Cc1onc(-c2ccccc2Cl)c1C(=O)Nc1sc(C)c(C)c1C#N | 13.6
O=C(NCCCn1ccnc1)c1ccc([N+](=O)[O-])cc1Cl | -8
O=C1NN(c2ccc(Cl)c(Cl)c2)C(=O)/C1=C/c1cccs1 | -0.3
COc1cc(C(=O)Nc2ccccc2OC(C)C)cc(OC)c1OC | 12
O=C(c1ccc(F)cc1)N1CCN(C2CCN(Cc3ccccc3)CC2)CC1 | -3.3
Cc1nc2c(C)c(-c3ccccc3)nn2c(C)c1Cl | -1
CCN1C(=O)/C(=C/c2cc(OC)c(O)c(OC)c2)C(=O)NC1=S | 11.6
COc1ccc(NC2=C(C(=O)C(F)(F)F)CCCC2)cc1OC | 12.2
CCc1ccc(NC(=O)c2ccc(C(C)C)cc2)cc1 | -0.7
CC(=O)NC(NS(=O)(=O)c1ccccc1)(C(F)(F)F)C(F)(F)F | -8.9
Cn1c(=O)c(C(=O)Nc2ccccc2O)c(O)c2ccccc21 | 5.1
CCOc1cc(C2C3=C(CC(C)(C)CC3=O)Nc3ccccc3N2C(=O)c2ccccc2)ccc1O (stereo not drawn) | -11.1
CCCOc1ccc(-c2ccc(-c3noc(CCC)n3)cc2)cc1 | -20.2
Cc1cc(Cl)cc(SCC(=O)O)c1Cl | -4.6
Cc1ccc(/C(N)=N/OC(=O)COc2ccccc2)cc1 | 11.9
CCCc1nc2c(C)cc(C)cc2c(N)c1CC | -19.4
O=C(NNC(=O)C(c1ccccc1)c1ccccc1)c1ccc(Cl)cc1 | -7.4
CCOC(=O)C(C#N)C1(c2ccc(C)cc2)CCOC(C)(CC)C1 (stereo not drawn) | -5.7
CCOc1ccc(NC(=O)C2CC3c4ccccc4C2c2ccccc23)cc1 (stereo not drawn) | 2.6
CCCN(CCC)C(=O)c1ccccc1 | 9.1
Brc1cc2c(cc1/C=N/Nc1nc3ccccc3s1)OCO2 | 0
O=C(Nc1ncc(Cc2ccc(F)cc2)s1)C1CCCCC1 | -5.4
COc1ccc(C(=O)OCC(=O)c2ccc(Br)cc2)cc1OC | 2.8

SMILES | displacement [%]
CC(NC(=O)CN1C(=O)c2ccccc2C1=O)c1ccccc1 (stereo not drawn) | 0.3
CC1(C)CC(=O)C2=C(C1)Nc1ccccc1NC2c1cccc(F)c1 (stereo not drawn) | -0.2
O=S(=O)(NNc1nc(-c2ccccc2)c2cc(Cl)ccc2n1)c1ccccc1 | -3.8
COc1cc(NC(=O)c2cc3nc(-c4ccccc4)cc(C)n3n2)c(OC)cc1Cl | -12.8
CCN(CC)C(=O)C12CC3CC(C1)C(=O)C(C3)C2 | -1.5
COc1ccc(N(CC(=O)Nc2ccc(OC)cc2OC)S(C)(=O)=O)cc1 | 1.7
O=C(/C=C/c1ccc(F)cc1)c1ccccc1O | -0.8
COc1ccc(N2C(=O)CC(Cc3ccc(Cl)cc3)C2=O)cc1 (stereo not drawn) | 10.4
Cc1ccc(S(=O)(=O)N/N=C/c2cccc(OS(=O)(=O)c3ccc([N+](=O)[O-])cc3)c2)cc1 | 9.8
CCOC(=O)CNC(=O)c1cc(-c2ccccc2)nc2ccccc12 | -1
CC(C)(C)c1ccc(C(=O)Nc2ccc(NC(=O)c3ccccc3[N+](=O)[O-])cc2)cc1 | -0.4
Cn1ncc(Cl)c1C(=O)N(C(=O)c1c(Cl)cnn1C)c1ccccn1 | -2.6
COc1ccc(C2Nc3ccccc3NC3=C2C(=O)CC(c2ccc(Cl)cc2)C3)c(OC)c1OC (stereo not drawn) | 5.1
CCCOc1ccc(C(=O)N2CCC(C)CC2)cc1 | 5.7
CCc1ccc(NC(=O)CC2Nc3ccccc3NC2=O)cc1 (stereo not drawn) | -35.7
CCCN(CCC)C(=O)c1c(NC(=O)c2ccccc2Cl)sc2c1CCCC2 | 7.1
COc1ccc2oc(-c3cccc(Br)c3)cc(=O)c2c1 | -8.1
CC(=O)c1cccc(N=Cc2cc(Br)cc(Br)c2O)c1 | 25.8
O=c1c2ccccc2c(-c2ccccc2)nn1CCc1ccccc1 | -10.1
CC(C)Oc1cccc(C(=O)Nc2ccc(F)c([N+](=O)[O-])c2)c1 | 17.9
CC(=O)c1c(C)nc(-c2ccccc2)nc1NC(=O)C(C)C | 10.6
COC(=O)c1sccc1NC(=O)c1ccc(OCC(C)C)cc1 | 2.1
CC(=O)N1CCN(c2ccc(Cl)cc2[N+](=O)[O-])CC1C (stereo not drawn) | 6.8

SMILES | displacement [%]
CC(C)OC(=O)N1C2C=CC(C2)C1(C(F)(F)F)C(F)(F)F (stereo not drawn) | -9.2
Cc1ccc(NC(=O)c2ccc(Oc3ccc([N+](=O)[O-])cc3)cc2)cc1C | -1.8
Cc1ccccc1C(=O)NN1C(=O)/C(=C/c2cccc(OCc3ccccc3)c2)SC1=S | -43.3
Cc1ccc(NC(=O)N2CCOCC2)cc1 | -7.5
COc1cc(/C=C(\C#N)C(=O)c2ccccc2)cc(OC)c1OC | -5.6
O=C(N/N=C/c1ccc([N+](=O)[O-])o1)c1ccc(C(F)(F)F)cc1 | 0.1
CCCC1(O)C(C)C(c2ccccc2)NC(c2ccccc2)C1C (stereo not drawn) | -4.1
O=C(Cc1ccc([N+](=O)[O-])cc1)Nc1ccc(Cl)c(C(F)(F)F)c1 | -6.1
CCOC(=O)C(CC#CCN(C)C)(CC#CCN(C)C)C(=O)OCC | 6.1
CC(C)OC(=O)C(=O)/C=C1\NC(C)(C)Cc2ccccc21 | 6
COc1cc(OC)c(C2NC(=S)NC(C)=C2C(=O)Nc2cccc(Cl)c2)cc1OC (stereo not drawn) | -3.1
O=C1C(=O)N(Cc2ccccc2)C2C=CC=CC12 (stereo not drawn) | -2.3
CCCc1ccc(OCc2nnc(NC(=O)Nc3cccc(Cl)c3)s2)cc1 | 4.5
CCOC(=O)c1sc(NC(=O)c2ccccc2[N+](=O)[O-])nc1C | -0.6
O=c1oc(-c2cccc([N+](=O)[O-])c2)nc2ccc(Br)cc12 | 24.5
CCOc1nc(-c2ccccc2)c2cc(C)ccc2n1 | 45.2
COc1ccc(N2C(=O)/C(=C3/C(=O)N(C)c4ccccc43)SC2=S)cc1 | -6.1
O=C(NCCc1ccc(F)cc1)C(=O)NC1CC1 | 7.1
COc1ccccc1OCC(=O)Nc1ccc(C(C)=O)cc1 | 3.8
O=C1N/C(=N\Nc2ccc([N+](=O)[O-])cc2)S/C1=C/c1ccccc1 | -25.2
C/C(=N\O)c1ccc2c3c([nH]c2c1)CCCC3 | 34.2
Cc1cc(C)cc(NC(=O)CSc2nc(C)cc(C)n2)c1 | 5.2
CC(=O)Nc1ccccc1/C=C/c1ccc2c(C)cc(C)c(O)c2n1 | 11.9

SMILES | displacement [%]
COc1cc(NC(=O)CCc2ccccc2)cc(OC)c1 | -2.5
O=C1C2=C(Nc3[nH]n(-c4ccccc4)c(=O)c3C2c2ccccc2)c2ccccc21 (stereo not drawn) | 11.8
CCOc1ccc(NC(=O)C(=O)NCC2CCNCC2)cc1 | 2.8
Cc1nnc(SCC(=O)Nc2ccc3c(c2)C(=O)c2ccccc2C3=O)s1 | 13.9
O=P(COCC1CCCO1)(c1ccccc1)c1ccccc1 (stereo not drawn) | 15.4
CCOc1ccccc1N1CCN(C(=O)C(Sc2ccccc2)c2ccccc2)CC1 (stereo not drawn) | -4.4
C/C(=C(\C#N)C(=O)NC1CCCCC1)N(C)C | -10.8
CCC(Oc1ccccc1)C(=O)Nc1cccc(Br)c1 (stereo not drawn) | -3.8
CCc1ccccc1NC(=O)C(=O)NC(C)c1ccccc1 (stereo not drawn) | -18.2
Nc1nonc1C(=O)N/N=C/c1cccc(O)c1 | 3.6
COc1ccc(OC)c(NC(=O)C2CC2(c2cccc(C)c2)c2cccc(C)c2)c1 (stereo not drawn) | 1.4
Cc1ccc(NC(=S)NC2CCCCC2)cc1 | 15.4
Cc1ccc(NC(=O)COC(=O)c2ccnn2C)cc1 | 18.4
COc1ccc(S(=O)(=O)N(CC(=O)Nc2ccccc2C(F)(F)F)Cc2ccccc2)cc1OC | 8.9
O=S(=O)(c1ccc(Cl)cc1)N1CCN(CCCc2ccccc2)CC1 | -7.5
O=C(/C=C/c1ccccc1)NC(=S)Nc1cccc(Cl)c1 | 15.1
COC(=O)C1=C(C)NC2=C(C(=O)CC(c3ccccc3)C2)C1c1ccc(Cl)cc1 (stereo not drawn) | -5.3
O=C(c1ccncc1)N1CCN(C2CCCCC2)CC1 | -3.8
O=C(/C=C/Nc1ccccc1F)c1ccc(Br)cc1 | 85.6
CCOc1ccc(S(=O)(=O)Nc2ccc(Cl)cc2)cc1 | 11.1
O=C(NC(=Nc1nc2ccccc2o1)NC(=O)c1ccccc1)c1ccccc1 | -0.2
